Assays:
GST-OmpR = molecular target: T1, GST-OmpR (Salmonella enterica serovar Typhimurium, UniProt P0AA19 1-239); experiment: MST; NT647 (RED-Tris-NTA)-labelled TrxA-6His variants, GST-OmpR diluted in series, 50 mM Tris HCl pH 7.5, 75 mM NaCl, Monolith NT.115, 40% MST power; conditions: both partners purified
T1 construct: response regulator OmpR of Salmonella; pGEX-6p-1; also called recombinant OmpR protein; source: E. coli BL21 (DE3) or Origami B (DE3) pLysS, purified (Glutathione-Sepharose 4B, Superdex 75)
T1 sequence: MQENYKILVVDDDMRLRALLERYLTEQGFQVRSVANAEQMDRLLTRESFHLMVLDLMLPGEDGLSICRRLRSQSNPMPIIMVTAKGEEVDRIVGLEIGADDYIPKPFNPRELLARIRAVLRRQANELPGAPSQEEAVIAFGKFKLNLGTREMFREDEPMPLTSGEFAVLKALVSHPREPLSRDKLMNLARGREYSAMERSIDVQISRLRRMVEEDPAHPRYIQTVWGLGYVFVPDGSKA

[1] = molecular target: T2, OmpR-6His (recombinant, wild type) (Salmonella enterica serovar Typhimurium, UniProt P0AA19 1-239); experiment: NMR titration; 15N-HSQC, 300 μM 15N-TrxA with 0-600 μM unlabeled OmpR, 298 K, 20 mM KPO4, 50 mM NaCl, pH 6.5; conditions: both partners purified
T2 construct: response regulator OmpR of Salmonella; pET22b::OmpR; isotope-labelled for NMR; also called unlabeled OmpR; 15N-labeled OmpR; source: E. coli Origami B (DE3), purified (TALON)
T2 sequence: T1 sequence

B1: TrxA-6His (recombinant thioredoxin, wild type) (natural protein)
chain: not shown
notes: thioredoxin TrxA of Salmonella, encoded by trxA; pET-22b(+) NdeI/XhoI; isotope-labelled (15N, 13C) for NMR; labelled with NT647 RED-Tris-NTA on the His tag for MST; also called 15N-labeled TrxA; wildtype TrxA; source: E. coli BL21 (DE3), purified (TALON, Superdex 75); not shown: His6, C-terminal, kept
GST-OmpR
  Kd: 6 µM
[1]
  Kd: < 10 µM

From article PMC9584953, “Promiscuity of response regulators for thioredoxin steers bacterial virulence” (Nature Communications, 2022)
